The supplement of paper PMC10037445
Several values for one entry are separate records, joined by “and”; a condition that tells them apart may be missing. Equal values may be shown once. ± gives the standard deviation of the averaged measurements. Over roughly 2,900 compounds, “NF-kB SEAP reporter activity, fold change vs agonist alone” has its median near 0.99; the highest 2% begin near 2.6. This is one part of the list.

Assays:
RAW-Dual [1] = experiment: NF-kB SEAP reporter activity, fold change vs agonist alone; higher = enhanced NF-kB activity; conditions: library stock concentration (final ~1000-fold dilution): 10 mM
Method in brief: (§1)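 Supernatant from RAW-Dual macrophages was read after 20 hours for IRF by QuantiLuc luminescence and for NF-κB by QuantiBlue absorbance at 620 nm. The cells (50,000 cells/well in DMEM, 384-well plates, 37 °C, 5% CO2) had received 50 nL of library stock by pin tool and, 1 h later, a PRR agonist. Reporter activity is expressed relative to agonist-alone wells as fold change, and wells were flagged cytotoxic if IncuCyte confluency was under 70% of agonist controls in both mask sets.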

RAW-Dual [2] = experiment: NF-kB SEAP reporter activity, fold change vs agonist alone; cytotoxicity flag (confluency mask): not cytotoxic; higher = enhanced NF-kB activity
Method in brief: as §1

RAW-Dual [3] = experiment: NF-kB SEAP reporter activity, fold change vs agonist alone; cytotoxicity flag (confluency mask): cytotoxic (confluency <70% of control); higher = enhanced NF-kB activity
Method in brief: as §1

[4] = cytotoxicity flag (confluency mask): not cytotoxic, agonist: Imiquimod (TLR7) […]
[5] = cytotoxicity flag (confluency mask): not cytotoxic, agonist: MPLA (TLR4) […]
[6] = agonist: ODN 1826 (TLR9) 0.5 ug/mL
[7] = agonist: Pam2CSK4 (TLR2/6) 0.1 ug/mL
[8] = agonist: Pam3CSK4 (TLR2/1) 0.1 ug/mL
[9] = cytotoxicity flag (confluency mask): cytotoxic (confluency <70% of control), agonist: MPLA (TLR4) […]

CCOCC(O)COc1ccc(NC(=O)CC[S+](C)C)cc1 (configuration not stated)
NF-kB SEAP reporter activity (RAW-Dual [1]; [4]): 1.33
NF-kB SEAP reporter activity (RAW-Dual [1]; [5]): 1.23

CCOCC(O)COc1ccc(NC(=O)CC[S+](C)C)cc1 (configuration not stated) (library stock concentration (final ~1000-fold dilution): 10 mM)
NF-kB SEAP reporter activity (RAW-Dual [2]; agonist: LPS (TLR4) 0.1 ug/mL): 1.37
NF-kB SEAP reporter activity (RAW-Dual [2]; [6]): 1.46
NF-kB SEAP reporter activity (RAW-Dual [2]; [7]): 1.75
NF-kB SEAP reporter activity (RAW-Dual [2]; [8]): 2.02

O=C(NCCCNc1nc(Nc2cccc(CN3CCOCC3)c2)ncc1C1CC1)C1CCC1 (library stock concentration (final ~1000-fold dilution): 10 mM)
NF-kB SEAP reporter activity (RAW-Dual [2]; agonist: LPS (TLR4) 0.1 ug/mL): 3.77 ± 1.8
NF-kB SEAP reporter activity (RAW-Dual [2]; [8]): 4.25 and 3.71

CC12CCC(CC1)C(C)(C)O2 (library stock concentration (final ~1000-fold dilution): 10 mM)
NF-kB SEAP reporter activity (RAW-Dual [2]; agonist: LPS (TLR4) 0.1 ug/mL): 0.942
NF-kB SEAP reporter activity (RAW-Dual [2]; [6]): 0.982
NF-kB SEAP reporter activity (RAW-Dual [2]; [7]): 1.06
NF-kB SEAP reporter activity (RAW-Dual [2]; [8]): 1.11

CC12CCC(CC1)C(C)(C)O2
NF-kB SEAP reporter activity (RAW-Dual [1]; [4]): 0.906
NF-kB SEAP reporter activity (RAW-Dual [1]; [5]): 1.01

COc1ccc2cc(C(C)C(=O)O)ccc2c1 (configuration not stated)
NF-kB SEAP reporter activity (RAW-Dual [1]; [4]): 0.931

COc1ccc2cc(C(C)C(=O)O)ccc2c1 (configuration not stated) (library stock concentration (final ~1000-fold dilution): 10 mM)
NF-kB SEAP reporter activity (RAW-Dual [2]; agonist: LPS (TLR4) 0.1 ug/mL): 1.09 and 0.938
NF-kB SEAP reporter activity (RAW-Dual [2]; [6]): 0.966 and 0.971
NF-kB SEAP reporter activity (RAW-Dual [2]; [7]): 1.1 and 1.26
NF-kB SEAP reporter activity (RAW-Dual [2]; [8]): 0.858 and 1.04

Cc1nccn1CC1CCc2c(c3ccccc3n2C)C1=O.Cl.O.O (configuration not stated)
NF-kB SEAP reporter activity (RAW-Dual [1]; [9]): 0.921

Cc1nccn1CC1CCc2c(c3ccccc3n2C)C1=O.Cl.O.O (configuration not stated) (library stock concentration (final ~1000-fold dilution): 10 mM)
NF-kB SEAP reporter activity (RAW-Dual [3]; agonist: LPS (TLR4) 0.1 ug/mL): 0.796
NF-kB SEAP reporter activity (RAW-Dual [3]; [6]): 0.803
NF-kB SEAP reporter activity (RAW-Dual [3]; [7]): 0.949
NF-kB SEAP reporter activity (RAW-Dual [3]; [8]): 0.871

COc1cc(C=CC(=O)OCC[N+](C)(C)C)cc(OC)c1O (library stock concentration (final ~1000-fold dilution): 10 mM)
NF-kB SEAP reporter activity (RAW-Dual [2]; agonist: LPS (TLR4) 0.1 ug/mL): 1.08
NF-kB SEAP reporter activity (RAW-Dual [2]; [6]): 1.04
NF-kB SEAP reporter activity (RAW-Dual [2]; [7]): 1.06
NF-kB SEAP reporter activity (RAW-Dual [2]; [8]): 1.2

COc1cc(C=CC(=O)OCC[N+](C)(C)C)cc(OC)c1O
NF-kB SEAP reporter activity (RAW-Dual [1]; [4]): 0.966
NF-kB SEAP reporter activity (RAW-Dual [1]; [5]): 1.03

Cc1ccc(CN(CC(O)COc2cccc3[nH]ccc23)C(C)(C)C)cc1 (configuration not stated)
NF-kB SEAP reporter activity (RAW-Dual [1]; cytotoxicity flag (confluency mask): cytotoxic (confluency <70% of control), agonist: Imiquimod (TLR7) […]): 1.58
NF-kB SEAP reporter activity (RAW-Dual [1]; [9]): 1.76

Cc1ccc(CN(CC(O)COc2cccc3[nH]ccc23)C(C)(C)C)cc1 (configuration not stated) (library stock concentration (final ~1000-fold dilution): 10 mM)
NF-kB SEAP reporter activity (RAW-Dual [3]; agonist: LPS (TLR4) 0.1 ug/mL): 1.63
NF-kB SEAP reporter activity (RAW-Dual [3]; [6]): 1.59
NF-kB SEAP reporter activity (RAW-Dual [3]; [7]): 1.2
NF-kB SEAP reporter activity (RAW-Dual [3]; [8]): 1.79

Cl.Cl.NC1(c2ccc(-c3nc4ccn5c(=O)[nH]nc5c4cc3-c3ccccc3)cc2)CCC1
NF-kB SEAP reporter activity (RAW-Dual [1]; [4]): 1.91
NF-kB SEAP reporter activity (RAW-Dual [1]; [5]): 2.3

Cl.Cl.NC1(c2ccc(-c3nc4ccn5c(=O)[nH]nc5c4cc3-c3ccccc3)cc2)CCC1 (library stock concentration (final ~1000-fold dilution): 10 mM)
NF-kB SEAP reporter activity (RAW-Dual [2]; agonist: LPS (TLR4) 0.1 ug/mL): 0.456
NF-kB SEAP reporter activity (RAW-Dual [2]; [6]): 0.275
NF-kB SEAP reporter activity (RAW-Dual [2]; [7]): 0.812
NF-kB SEAP reporter activity (RAW-Dual [2]; [8]): 0.641
